The supplement of paper PMC10126150
Sequences with one replicate were seen in a single cluster, so their values are uncertain.

system: ATP; assay: switch fluorescence ratio, 500 uM ATP over buffer (Cy3 cluster intensity, sum of 5 cycles each) (fold (ratio)); higher = stronger signal-on switching upon ATP binding; sequences stand for … in TCGTCGGCAGCGTCAGATGTGTATAAGAGACAGTTTTTTTTTTTTTTTTTTTTTTTTT…TC; conditions: aptamer strand: ATP DNA aptamer (quencher-CACCTGGGGGAGTATTGCGGAGGAAGG + anchor), 100 nM annealed; ATP concentration: 500 uM; one replicate
How it was run: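 Clusters with intensities outside 100-1000 RFU were excluded. The remaining Cy3-labelled switching-strand clusters on a modified Illumina MiSeq flow-cell had been annealed to 100 nM quencher-labelled ATP aptamer and imaged in selection buffer, then after 15 min with 500 uM ATP at 22 °C, for five cycles separated by NaOH stripping and re-annealing. The fluorescence ratio, averaged per switch-domain sequence, is each cluster's summed target-cycle Cy3 intensity over its summed buffer-cycle Cy3 intensity.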
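Also: ATP exposure 15 min at 22 °C before imaging.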

Sequence | switch fluorescence ratio
TGGTGACTGG | 1.18
ACGCGGAGGA | 1.03
CTCACATGCA | 1.03
TCAGTGGTAA | 1.03
ACGGTGCT | 1.01
AAGTGGGACT | 1.04
TGTTTGGCAC | 1.02
GACAAAGTCG | 1.01
ACTAGGTGG | 0.976
TTCGTTGGA | 0.931
GACCTAAAAC | 0.98
TCTGGGAACT | 0.998
GTCCAGAGAT | 1.07
GGCAATGGGT | 1.05
TTGTAGAACA | 1.01
GTAAGTAGGC | 1.1
GGGTGGCGG | 1
TAATTTAGTC | 1.05
TACGCAGAAC | 3.57
TCATTCAAAT | 1
GGTATTGAA | 0.988
ATTATTGAAC | 1.02
GTGCAAGCTA | 1.01

Sequence | switch fluorescence ratio
ACGGCAGTTA | 0.969
ATAGTGGAAC | 0.981
AATGCCCGGG | 1.03
GGAGGATTGC | 0.992
TGCCCGGTCA | 1.02
CTCTCGCGGT | 2.01
TGCCATTAAT | 1.03
TGGGAGTGTC | 1.03
AAGAGCTGAT | 0.947
CCTCGGTGCC | 1.11
AGTACTACGA | 1.05
TACTGAGCGT | 1.06
GGCTCTATGA | 1.04
ACGAACCAAC | 1.35
AAAAAGCGCG | 0.975
AAGTGCGAAT | 0.982
TTTCCAAGAC | 1.7
ACCGGCGGTC | 1
GTGACACCCC | 1.19
TCAATAAGT | 0.982
ATTACTTTAC | 1.44
TTGTCACTGG | 1.02
ACTGAGTGG | 0.972

Sequence | switch fluorescence ratio
CGTTCAAAAA | 0.918
TCTGTTAACG | 0.994
CGTGGTTGGC | 0.879
CGGTATGCCA | 1.01
AGGGCCCAAG | 0.963
AGCAACGTGG | 0.987
GAATTAGTAA | 0.957
AGTGTCGTAA | 1.03
CGGGGATAGC | 1.01
CATGACTGCG | 0.972
AAGTTGACAA | 1.05
AGATTGGAAA | 0.984
ATACTTCATC | 1.12
TCGGAATAGT | 1.55
ACAGCGGTTC | 1.05
TGAGTGTGGC | 1.1
TGTGAAGAAG | 0.971
TTTATGACA | 1.04
GGGTGTATAC | 1.03
AGGTTTATGG | 1.01
TCCCTCCGTT | 3.02
GGATCATTCA | 1.03
CTTAGACGCG | 0.999

Sequence | switch fluorescence ratio
TTGTTTTTA | 0.992
CGTGGAAGAA | 0.981
AAAAGTTGTG | 1.58
CATTAGTGCG | 0.978
TTGTCGAAAC | 1.03
CAAGAAGTAG | 0.955
TGACATAC | 1.35
TGTTATTCTT | 1.2
AGATGACTTG | 1.06
CCCGAGCGTG | 1.04
CTGATCTTTT | 0.986
CTAAGCCGAG | 1.06
TGTTATGGGA | 0.98
AACGAGAATA | 0.986
TCGAGAGATT | 0.973
CAAATGACAA | 0.964
CCAGGTAGGG | 0.986
AGAGTTTAA | 1.05
AGGGTCGCAT | 0.979
TACTAATGCT | 0.996
GATGGCGAAG | 1.01
AAGACAATT | 1.04
TCCGGGACGT | 1.07

Sequence | switch fluorescence ratio
GGTAAGGTGC | 1.37
GTGAAACCTT | 1.2
TGAGCGCCGA | 1.05
AATACAGTTT | 1.01
CAGGAAGGCC | 0.965
AAGAGTCTGC | 0.981
CACTCTCACT | 1.1
CAAGGGACCA | 1.05
GGCATCGAGA | 1.06
GCGGGTCACT | 1.02
CTACCCGACA | 1.93
GAGACAGCCC | 1.65
TTATTCTTGA | 1.02
TCACCTGCCT | 1.59
TACGGATCAG | 0.962
GCGTCCTGCA | 0.995
TTTTGTGATC | 0.954
GAAAGCTTTT | 1.01
CCTTGATGAT | 0.981
GTAAGACGTA | 1.07
ATGTGGCAGC | 0.951
GCTAAAGGCC | 1.02
TGCACCTGCA | 1

Sequence | switch fluorescence ratio
GTCTAAATGC | 1.19
ACGTGTCGCG | 1.04
TTTATGGAAC | 0.977
ACTTCTTGAC | 1.09
TCGGAAGTTA | 1.02
ATAAGATTCG | 1.02
AAAAGTGGCT | 0.984
CCTGTTCAGG | 1.07
GGGGCATGCG | 1.02
GGTTTACTCC | 1.04
GACTGATTCA | 1.01
GTTAGTTTT | 1.02
ACGAGGCGCG | 0.993
ATTTGGGTTC | 0.985
GAGGGTGAAG | 1
TAAGTAACTG | 0.995
ATCCCGTA | 0.989
TCAAAGTTCA | 0.993
TGCGCTCCAC | 1.34
ATTTACATTC | 1.03
TGCTCTCCCC | 1.08
TGATGGCTAT | 0.948
TGGATATGC | 1.03

Sequence | switch fluorescence ratio
GTAGTAGTCC | 0.969
TCTAGTTATT | 1.05
CGTTTCCGGA | 0.896
ATATGTCGCG | 1.02
CCAATTTTTT | 1.03
ATCCCGTGGG | 1.05
CCGTCAGGGG | 1.32
CCGATAAGGG | 1.07
GACGGAACAT | 1.11
AGAGGGCTT | 0.981
ACGAGAGCCA | 1.06
CTGTGAGCT | 1.06
TTGTATGGGC | 0.991
ATTTTTCACA | 1.01
TATCCCGAAA | 1.17
TAACGGCTCG | 1.03
CCGACGGATT | 4.82
GCGTGGGCAT | 1
CTGGGTTGGA | 0.976
